Assay results reported in the supplement of paper PMC8728848.
The list shows a part of the results.

Experiments:
Experiment in all cases: glycan array binding signal (z-score within array); higher = stronger binding
Settings in all cases: glycan notation: IUPAC condensed, linker removed
[1] = target: Neu5Ac(a2-3)Gal(b1-4)GlcNAc(b1-2)[Neu5Ac(a2-3)Gal(b1-4)GlcNAc(b1-4)]Man(a1-3)[GlcNAc(b1-4)][Neu5Ac(a2-3)Gal(b1-4)GlcNAc(b1-2)[Neu5Ac(a2-3)Gal(b1-4)GlcNAc(b1-6)]Man(a1-6)]Man(b1-4)GlcNAc(b1-4)GlcNAc
In short: (§1)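 The binding signal is a Z-score computed within each array and averaged over linkers. Arrays of the same protein sequence at different concentrations or buffers were also averaged together. Data originate from 3228 arrays in the Consortium for Functional Glycomics database, kept only where the protein sequence was available.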

[2] = target: Neu5Ac(a2-3)Gal(b1-4)GlcNAc(b1-2)[Neu5Ac(a2-3)Gal(b1-4)GlcNAc(b1-4)]Man(a1-3)[GlcNAc(b1-4)][Neu5Ac(a2-3)Gal(b1-4)GlcNAc(b1-4)Man(a1-6)]Man(b1-4)GlcNAc(b1-4)GlcNAc
In short: as §1

[3] = target: Neu5Ac(a2-3)Gal(b1-4)GlcNAc(b1-2)[Neu5Ac(a2-3)Gal(b1-4)GlcNAc(b1-6)]Man(a1-6)[Neu5Ac(a2-3)Gal(b1-4)GlcNAc(b1-2)Man(a1-3)][GlcNAc(b1-4)]Man(b1-4)GlcNAc(b1-4)GlcNAc
In short: as §1

[4] = target: Neu5Ac(a2-3)Gal(b1-4)GlcNAc(b1-3)Gal
In short: as §1

[5] = target: Neu5Ac(a2-3)Gal(b1-4)GlcNAc(b1-3)Gal(b1-3)GlcNAc
In short: as §1

[6] = target: Neu5Ac(a2-3)Gal(b1-4)GlcNAc(b1-3)Gal(b1-4)GlcNAc
In short: as §1

[7] = target: Neu5Ac(a2-3)Gal(b1-4)GlcNAc(b1-3)Gal(b1-4)GlcNAc(b1-2)Man(a1-3)[Neu5Ac(a2-3)Gal(b1-4)GlcNAc(b1-3)Gal(b1-4)GlcNAc(b1-2)Man(a1-6)]Man(b1-4)GlcNAc(b1-4)GlcNAc
In short: as §1

[8] = target: Neu5Ac(a2-3)Gal(b1-4)GlcNAc(b1-3)Gal(b1-4)GlcNAc(b1-3)Gal(b1-4)GlcNAc
In short: as §1

[9] = target: Neu5Ac(a2-3)Gal(b1-4)GlcNAc(b1-3)Gal(b1-4)GlcNAc(b1-3)Gal(b1-4)GlcNAc(b1-2)Man(a1-3)[Neu5Ac(a2-3)Gal(b1-4)GlcNAc(b1-3)Gal(b1-4)GlcNAc(b1-3)Gal(b1-4)GlcNAc(b1-2)Man(a1-6)]GalNAc
In short: as §1

[10] = target: Neu5Ac(a2-3)Gal(b1-4)GlcNAc(b1-3)Gal(b1-4)GlcNAc(b1-3)GalNAc
In short: as §1

[11] = target: Neu5Ac(a2-3)Gal(b1-4)GlcNAc(b1-3)Gal(b1-4)GlcNAc(b1-3)[Neu5Ac(a2-3)Gal(b1-4)GlcNAc(b1-3)Gal(b1-4)GlcNAc(b1-6)]GalNAc
In short: as §1

[12] = target: Neu5Ac(a2-3)Gal(b1-4)GlcNAc(b1-3)Gal(b1-4)GlcNAc(b1-6)[Gal(b1-3)]GalNAc
In short: as §1

[13] = target: Neu5Ac(a2-3)Gal(b1-4)GlcNAc(b1-3)Gal(b1-4)[Fuc(a1-3)]GlcNAc
In short: as §1

[14] = target: Neu5Ac(a2-3)Gal(b1-4)GlcNAc(b1-3)GalNAc
In short: as §1

[15] = target: Neu5Ac(a2-3)Gal(b1-4)GlcNAc(b1-3)[Neu5Ac(a2-3)Gal(b1-4)GlcNAc(b1-6)]GalNAc
In short: as §1

[16] = target: Neu5Ac(a2-3)Gal(b1-4)GlcNAc(b1-6)GalNAc
In short: as §1

[17] = target: Neu5Ac(a2-3)Gal(b1-4)GlcNAc(b1-6)[Gal(b1-3)]GalNAc
In short: as §1

[18] = target: Neu5Ac(a2-3)Gal(b1-4)GlcNAc(b1-6)[Neu5Ac(a2-3)Gal(b1-3)]GalNAc
In short: as §1

[19] = target: Neu5Ac(a2-3)Gal(b1-4)GlcNAc6S
In short: as §1

[20] = target: Neu5Ac(a2-3)Gal(b1-4)[Fuc(a1-3)]GlcNAc
In short: as §1

[21] = target: Neu5Ac(a2-3)Gal(b1-4)[Fuc(a1-3)]GlcNAc(b1-2)Man
In short: as §1

[22] = target: Neu5Ac(a2-3)Gal(b1-4)[Fuc(a1-3)]GlcNAc(b1-3)Gal
In short: as §1

[23] = target: Neu5Ac(a2-3)Gal(b1-4)[Fuc(a1-3)]GlcNAc(b1-3)Gal(b1-4)GlcNAc
In short: as §1

[24] = target: Neu5Ac(a2-3)Gal(b1-4)[Fuc(a1-3)]GlcNAc(b1-3)Gal(b1-4)[Fuc(a1-3)]GlcNAc(b1-3)Gal(b1-4)[Fuc(a1-3)]GlcNAc
In short: as §1

[25] = target: Neu5Ac(a2-3)Gal(b1-4)[Fuc(a1-3)]GlcNAc(b1-3)GalNAc
In short: as §1

[26] = target: Neu5Ac(a2-3)Gal(b1-4)[Fuc(a1-3)]GlcNAc(b1-6)[Gal(b1-3)]GalNAc
In short: as §1

[27] = target: Neu5Ac(a2-3)Gal(b1-4)[Fuc(a1-3)]GlcNAc(b1-6)[Neu5Ac(a2-3)Gal(b1-3)]GalNAc
In short: as §1

[28] = target: Neu5Ac(a2-3)Gal(b1-4)[Fuc(a1-3)]GlcNAc6S
In short: as §1

[29] = target: Neu5Ac(a2-3)Gal6S(b1-4)GlcNAc
In short: as §1

[30] = target: Neu5Ac(a2-3)Gal6S(b1-4)[Fuc(a1-3)]GlcNAc
In short: as §1

Neu5Ac(a2-3)GalNAc = target: Neu5Ac(a2-3)GalNAc
In short: as §1

[31] = target: Neu5Ac(a2-3)GalNAc(b1-4)GlcNAc
In short: as §1

[32] = target: Neu5Ac(a2-3)[GalNAc(b1-4)]Gal(b1-4)Glc
In short: as §1

[33] = target: Neu5Ac(a2-3)[GalNAc(b1-4)]Gal(b1-4)GlcNAc
In short: as §1

[34] = target: Neu5Ac(a2-3)[GalNAc(b1-4)]Gal(b1-4)GlcNAc(b1-3)GalNAc
In short: as §1

[35] = target: Neu5Ac(a2-3)[Neu5Ac(a2-6)]GalNAc
In short: as §1

Neu5Ac(a2-6)Gal = target: Neu5Ac(a2-6)Gal
In short: as §1

[36] = target: Neu5Ac(a2-6)Gal(b1-3)GlcNAc(b1-3)[Gal(b1-4)GlcNAc(b1-6)]Gal(b1-4)Glc
In short: as §1

Neu5Ac(a2-6)Gal(b1-4)Glc = target: Neu5Ac(a2-6)Gal(b1-4)Glc
In short: as §1

[37] = target: Neu5Ac(a2-6)Gal(b1-4)GlcNAc
In short: as §1

[38] = target: Neu5Ac(a2-6)Gal(b1-4)GlcNAc(b1-2)Man
In short: as §1

[39] = target: Neu5Ac(a2-6)Gal(b1-4)GlcNAc(b1-2)Man(a1-3)Man(b1-4)GlcNAc(b1-4)GlcNAc
In short: as §1

[40] = target: Neu5Ac(a2-6)Gal(b1-4)GlcNAc(b1-2)Man(a1-3)[Gal(b1-4)GlcNAc(b1-2)Man(a1-6)]Man(b1-4)GlcNAc(b1-4)GlcNAc
In short: as §1

[41] = target: Neu5Ac(a2-6)Gal(b1-4)GlcNAc(b1-2)Man(a1-3)[GlcNAc(b1-4)][Neu5Ac(a2-6)Gal(b1-4)GlcNAc(b1-2)Man(a1-6)]Man(b1-4)GlcNAc(b1-4)GlcNAc
In short: as §1

[42] = target: Neu5Ac(a2-6)Gal(b1-4)GlcNAc(b1-2)Man(a1-3)[Man(a1-6)]Man(b1-4)GlcNAc(b1-4)GlcNAc
In short: as §1

B1: Epa22 (Candida glabrata) (protein)
chain: MGSSHHHHHHSSGLVPRGSHMKRALSSQNPFGYPIGCSPQSTNVIPGLTMELYSYPIVSGTPPNCYDASYVDPEYPRTGYLKRKMIGKSTGVTGSLNYKFSVEKACMVKYGNLPAGYNYNEPLTVSNFTMLLYGYFKPQTSGIHTFFVNADDLLYINFGAGNAFDCCKREDSKFKLGEYVAYDIWHVDSSKNKVSLNLEKDVYYPIRMFFNNIGKDSSLDLSFSVNGAVEHITDFSGYLYSVPDQPDACPAPIGYDTTCK
- glycan array binding signal (z-score) [1]: -0.392
- glycan array binding signal (z-score) [2]: -0.277
- glycan array binding signal (z-score) [3]: -0.386
- glycan array binding signal (z-score) [4]: -0.399
- glycan array binding signal (z-score) [5]: -0.357
- glycan array binding signal (z-score) [6]: -0.349
- glycan array binding signal (z-score) [7]: -0.254
- glycan array binding signal (z-score) [8]: -0.35
- glycan array binding signal (z-score) [9]: -0.278
- glycan array binding signal (z-score) [10]: -0.398
- glycan array binding signal (z-score) [11]: -0.323
- glycan array binding signal (z-score) [12]: -0.248
- glycan array binding signal (z-score) [13]: -0.325
- glycan array binding signal (z-score) [14]: -0.297
- glycan array binding signal (z-score) [15]: -0.257
- glycan array binding signal (z-score) [16]: -0.373
- glycan array binding signal (z-score) [17]: -0.321
- glycan array binding signal (z-score) [18]: -0.42
- glycan array binding signal (z-score) [19]: -0.166
- glycan array binding signal (z-score) [20]: -0.41
- glycan array binding signal (z-score) [21]: -0.347
- glycan array binding signal (z-score) [22]: -0.385
- glycan array binding signal (z-score) [23]: -0.416
- glycan array binding signal (z-score) [24]: -0.375
- glycan array binding signal (z-score) [25]: -0.25
- glycan array binding signal (z-score) [26]: -0.311
- glycan array binding signal (z-score) [27]: -0.187
- glycan array binding signal (z-score) [28]: -0.326
- glycan array binding signal (z-score) [29]: -0.393
- glycan array binding signal (z-score) [30]: -0.37
- glycan array binding signal (z-score) (Neu5Ac(a2-3)GalNAc): -0.29
- glycan array binding signal (z-score) [31]: -0.191
- glycan array binding signal (z-score) [32]: -0.403
- glycan array binding signal (z-score) [33]: -0.358
- glycan array binding signal (z-score) [34]: -0.37
- glycan array binding signal (z-score) [35]: -0.307
- glycan array binding signal (z-score) (Neu5Ac(a2-6)Gal): -0.247
- glycan array binding signal (z-score) [36]: -0.225
- glycan array binding signal (z-score) (Neu5Ac(a2-6)Gal(b1-4)Glc): 0.063
- glycan array binding signal (z-score) [37]: -0.155
- glycan array binding signal (z-score) [38]: -0.271
- glycan array binding signal (z-score) [39]: -0.251
- glycan array binding signal (z-score) [40]: -0.412
- glycan array binding signal (z-score) [41]: -0.397
- glycan array binding signal (z-score) [42]: -0.346
